86 molecules from ChEMBL document CHEMBL4888484, “Replenishing the malaria drug discovery pipeline: Screening and hit evaluation of the MMV Hit Generation Library 1 (HGL1) against asexual blood stage Plasmodium falciparum ,using a nano luciferase reporter read-out” (2022) can be followed below.

Each structure is given as a SMILES string. The whole screen tested about 150,000 compounds, of which about 540 (0.36%) showed an effect of 50% or more. The list shows a part of the results.

Broadly, the % Inhibition is the relative decrease from the control value, in per cent.

This assay has as its system Plasmodium falciparum. Description: Primary screen in NF54 nanoGlo assay, in single point, at 2uM, 72h; a lower Z score goes with more inhibition. The format is functional, Erythrocyte. To be noted: timepoint 72 hour.
Turning to `CC(C)(C)OC(=O)n1ccc2c(C(=O)c3ccccc3)cccc21`, the “% Inhibition” value is -7% and the Z score came out at 0.97.
Regarding `O=C(NCc1cccnc1)c1cc(N2CC[C@@H]3CCCC[C@H]3C2)ccn1`, the “% Inhibition” value was -9% and the Z score is on record as 0.87.
With `Cc1c[nH]c(CN2CCC(c3cc(N4CCCC4)ncn3)CC2)c(C)c1=O`, the “% Inhibition” value is recorded as -7% and the Z score was 1.31.
Take `Cc1ccc(CNC(=O)Cc2nc3cc(Cl)ccc3[nH]2)s1`: the “% Inhibition” value was -8% and the Z score was 1.1.
Consider `NS(=O)(=O)CC1CCN(C(=O)N[C@H]2C[C@@H]2C(F)(F)F)C1` (some centres not stated), for which the “% Inhibition” value is -10% and the Z score turned out to be 1.49.
`O=C(Nc1cccc(-c2csnn2)c1)c1ccccc1Cl`: the “% Inhibition” value was -11% and the Z score turned out to be 1.71.
Take `O=C(NCc1ccco1)c1ccc(CN2C(=O)CCn3nc(-c4ccccc4)cc32)cc1`: the “% Inhibition” value is reported as 28% and the Z score is given as -3.27.
As to `CCc1noc(CS(=O)(=O)Cc2coc(-c3cccs3)n2)n1`, the “% Inhibition” value is reported as -18% and the Z score is on record as 1.67.
In the case of `CC(C)(C)OC(=O)NCc1cc(C(=O)NCCc2c[nH]c3ccc(F)cc23)co1`, the “% Inhibition” value worked out at 1% and the Z score is on record as -0.18.
For the molecule `C[C@]1(C(=O)NCc2nc(-c3ccc(F)cc3)c[nH]2)CC1(Cl)Cl`, the “% Inhibition” value is listed as -12% and the Z score worked out at 1.17.
Take `CCc1cc(C(=O)N2CCCC[C@H]2c2cc[nH]n2)ccc1O`: the “% Inhibition” value was -8% and the Z score is 0.91.
Take `CN(Cc1ccccn1)C(=O)C[C@@H](c1cccc(O)c1)c1ccccc1Cl`: the “% Inhibition” value is -18% and the Z score was 1.6.
For `c1cc2nonc2cc1CN(CCN1CCCCC1)C[C@H]1CCCN(C2CCCC2)C1` the same measures were 0% and -0.05.
In the case of `CCC(Oc1ccccc1C)c1nnc(C2C3Cc4cc(Cl)ccc4C32)o1` (configuration not stated), the “% Inhibition” value is reported as 2% and the Z score is recorded as -0.28.
For the molecule `CC(C)(O)Cn1nnnc1C=Cc1ccccc1`, the “% Inhibition” value is -10% and the Z score is on record as 0.91.
As for `C#C[C@H](C)N(C)Cc1c[nH]c(C(=O)OC)c1`, the “% Inhibition” value is recorded as 41% and the Z score is recorded as -5.3.
Turning to `Cc1cc(C(=O)N[C@H]2C[C@@](C)(O)C2)ns1`, the “% Inhibition” value was determined as 8% and the Z score is reported as -0.91.
As for `O=C1CC(C[C@H]2CCCO2)=NN1c1cccc(F)c1Cl`, the “% Inhibition” value was -6% and the Z score is 0.81.
For the molecule `CC(C)N1CC[C@H](CNC(=O)c2cccc(OCC(F)(F)F)n2)C1`, the “% Inhibition” value stood at 2% and the Z score was -0.39.
Turning to `Cc1noc(C)c1CCCNc1ccc2cc[nH]c2n1`, the “% Inhibition” value is recorded as -2% and the Z score amounted to 0.32.
On to `CCCCNC(=O)Cn1ccc(=O)[nH]c1=O`, for which the “% Inhibition” value is listed as -7% and the Z score was determined as 1.1.
As for `C#CCN(CC#CC)C(=O)NCc1ccco1`, the “% Inhibition” value is reported as -8% and the Z score turned out to be 1.12.
On to `O=C(Nc1ccccc1)c1c(F)c(F)c2c(c1F)N(Cc1cccnc1)CCS2(=O)=O`, for which the “% Inhibition” value is recorded as -4% and the Z score was 0.72.
For `Cc1cc2c(NC3CC[S+]([O-])C3)nccn2n1` (configuration not stated) the same measures were 3% and -0.38.
In the case of `CC1CN(C(=O)C2CCN(C(=O)CCc3ccsc3)CC2)CC(C)O1` (configuration not stated), the “% Inhibition” value is 1% and the Z score is -0.11.
For `O=C(Nc1cccnc1)C1(O)CCOCC1` the same measures were 5% and -0.66.
Regarding `Cc1ccnn1CC(=O)N1CCC2(CC1)C[C@H](c1ccccc1)C(=O)N2C`, the “% Inhibition” value is on record as -4% and the Z score was 0.67.
Regarding `Cc1ccc(CNS(=O)(=O)c2cc(-c3nc(C)c(C)s3)cs2)cc1`, the “% Inhibition” value is recorded as -22% and the Z score was 3.24.
As for `CC[C@H](C)C(=O)N1CCC2(CCc3nn(CCOC)c(=O)n3CC2)CC1`, the “% Inhibition” value is -2% and the Z score was determined as 0.23.
Take `N#CCOc1ccc(CNC(=O)COCC(F)(F)F)cc1`: the “% Inhibition” value is listed as -13% and the Z score is listed as 2.03.
As to `CCc1cc(CN(C)C(=O)c2ccc3sc(C)nc3c2)on1`, the “% Inhibition” value is on record as -2% and the Z score is on record as 0.47.
`N#Cc1ncn(-c2nc(C3CC3)nc3scc(-c4ccccc4)c23)n1`: the “% Inhibition” value was -6% and the Z score amounted to 1.07.
Consider `CO[C@H]1CN(CCOc2ccc(F)cc2)C[C@@H]1O`, for which the “% Inhibition” value is reported as -12% and the Z score is reported as 1.7.
With `Cc1csc(CN(C)C(=O)c2c(CCc3ccccc3)n(Cc3ccccn3)c(C)cc2=O)n1`, the “% Inhibition” value is -5% and the Z score is 0.61.
`CCC[C@H](NC(=O)c1cncnc1N)C(=O)N1CCc2sccc2C1`: the “% Inhibition” value is listed as -5% and the Z score was 0.72.
Taken in the same sequence, the figures for `CC(C)[C@H](Cn1cncn1)NC(=O)NC1CCOCC1` were -10% and 1.49.
For the molecule `Cc1nc(-c2cccs2)sc1C(=O)NCCc1ccc(S(N)(=O)=O)cc1`, the “% Inhibition” value is recorded as -20% and the Z score was 3.72.
On to `COc1ncc(CN(Cc2cccnc2)Cc2ccc3c(c2)OCO3)cn1`, for which the “% Inhibition” value amounted to 25% and the Z score is recorded as -3.2.
On to `COC[C@@]1(C)CN(Cc2cc(C(=O)O)sc2C)CCO1`, for which the “% Inhibition” value was -4% and the Z score is recorded as 0.67.
Consider `O=C(Nc1cccc(C(F)(F)F)c1)N[C@H]1CC(=O)N(c2ccc3c(c2)OCCO3)C1`, for which the “% Inhibition” value came to 10% and the Z score is recorded as -1.4.
Taken in the same sequence, the figures for `CCOCCC(=O)N1CCC2(CC1)c1nc[nH]c1CCN2C(=O)C1CCC1` were 29% and -3.7.
Consider `COCCN(Cc1cccs1)C[C@@H](O)Cc1ccccc1`, for which the “% Inhibition” value is on record as 10% and the Z score is listed as -1.53.
`CN(Cc1ccccc1)c1ncccc1CNc1ccc(C#N)cn1`: the “% Inhibition” value is -8% and the Z score came out at 1.5.
Take `CCCNC(=O)c1cnc(-c2cccc(C)c2)nc1N(C)C1CCCCC1`: the “% Inhibition” value was -9% and the Z score was determined as 1.73.
Taken in the same sequence, the figures for `Cc1ccc(-n2nnnc2N2CCc3sccc3C2)cc1` were -13% and 1.45.
In the case of `O=C(COc1cccnc1)N1CCc2ncnc(N3CC=CC3)c2CC1`, the “% Inhibition” value is -15% and the Z score is given as 1.32.
As to `CCc1nn(C)c(Cl)c1CN1CC(OC)CC1c1ncc[nH]1` (configuration not stated), the “% Inhibition” value was -7% and the Z score is 0.66.
Taken in the same sequence, the figures for `COc1ccc(Cl)c(N(C)Cc2cnn(C)n2)c1` were 3% and -0.7.
Taken in the same sequence, the figures for `Cc1n[nH]c(C)c1CCc1nncn1-c1cccc(F)c1` were -11% and 2.06.
Consider `C[C@@H](Cn1cncn1)NC(=O)c1oc2ccccc2c1CN(C)C`, for which the “% Inhibition” value was -18% and the Z score was found to be 3.39.
Regarding `NC(=O)CCn1ccc(NC(=O)c2ccc(-c3ccccc3F)o2)n1`, the “% Inhibition” value was -14% and the Z score was found to be 2.44.
For `C[C@H]1CCc2n[nH]c(C(=O)NCCc3cnn[nH]3)c2C1`, the “% Inhibition” value is on record as -4% and the Z score is reported as 0.51.
As for `CCc1nccn1CCC(=O)N1CCC[C@H](Cc2nc3ccccc3[nH]2)C1`, the “% Inhibition” value was -9% and the Z score is on record as 1.15.
For `O=C(N[C@H]1C[C@H](c2ccccc2)C1)N1CCC[C@H](Cn2ccnn2)C1` the same measures were -10% and 1.06.
For the molecule `CC(C)S(=O)(=O)N(C)C(=O)CCCc1ccccc1`, the “% Inhibition” value is -8% and the Z score turned out to be 1.1.
Taken in the same sequence, the figures for `CCCn1nc(-c2ccco2)nc1CCN1CCCC1=O` were -6% and 0.73.
`O=C(CCc1ccc(F)cc1)N1CCCC1CC(O)c1ccco1` (configuration not stated): the “% Inhibition” value is -7% and the Z score is 0.74.
As to `CC(C1CCCCN1Cc1nccn1C)N1CCCS1(=O)=O` (configuration not stated), the “% Inhibition” value is on record as 5% and the Z score is on record as -0.94.
Taken in the same sequence, the figures for `COc1ccccc1-c1nc2n(n1)C1(CCCCC1)[C@@H]1CCCC[C@@H]1N2C(=O)c1ccco1` were -11% and 1.84.
For `c1ccc([C@H]2CCN(c3cnccn3)C2)nc1` the same measures were -5% and 0.6.
With `CC[C@H](NS(=O)(=O)N1CCC(C)CC1)c1nc(C)c(C)s1`, the “% Inhibition” value was -2% and the Z score turned out to be 0.26.
`O=C1NCCCc2[nH]c(-c3nnc4ccccn34)nc21`: the “% Inhibition” value is -18% and the Z score came out at 1.73.
In the case of `OC[C@H]1CN(c2nccc3ccc(F)cc23)CCC1(F)F`, the “% Inhibition” value is given as -11% and the Z score came to 1.07.
As for `O=C1NCCN(Cc2ccc(F)cc2)C1=O`, the “% Inhibition” value was determined as 6% and the Z score was -0.75.
`COc1cccc(CN2CCc3c(cc(C(=O)Nc4ccc(C)cc4C)n3C)C2)c1`: the “% Inhibition” value stood at 2% and the Z score was -0.34.
For `CC(C)CCC(=O)N1CCOc2ccc([C@@](C)(O)CN(C)C)cc2C1`, the “% Inhibition” value is 9% and the Z score is -1.19.
For the molecule `CCCNC(=O)N1CCCN(c2nc(C)nc3c2cnn3-c2ccc(C)cc2C)CC1`, the “% Inhibition” value is on record as -8% and the Z score stood at 1.31.
Take `Cc1ccsc1-c1ccc(C(=O)N2CC[C@@]3(O)CCNC[C@H]3C2)cc1`: the “% Inhibition” value is -9% and the Z score turned out to be 1.32.
Taken in the same sequence, the figures for `CCOc1ncccc1-c1ccc2ncsc2c1` were -14% and 2.74.
With `Cc1cnc(C(=O)Nc2cccc(-c3ccc4c(c3)CCO4)n2)cn1`, the “% Inhibition” value is listed as -10% and the Z score was 1.56.
In the case of `Cc1cccc(C(=O)NCCOc2ccc3c(c2)OCO3)n1`, the “% Inhibition” value is recorded as -14% and the Z score came out at 1.27.
`CC1(C)CC2CN(C(=O)Cc3ccccc3)C(C)(C2)C1` (configuration not stated): the “% Inhibition” value was -16% and the Z score is 2.18.
Taken in the same sequence, the figures for `O=C(N[C@@H]1COCC[C@@H]1OCC1CCC1)c1cncc(Cl)c1` were -22% and 4.26.
On to `Cc1ocnc1C(=O)NCCc1c(C)n2c3c(cccc13)CCC2`, for which the “% Inhibition” value is -16% and the Z score is 1.47.
On to `C=CCc1cc(C(=O)N2CC[C@H](O)[C@@H](O)C2)ccc1OC`, for which the “% Inhibition” value is listed as 15% and the Z score is listed as -1.94.
As for `OC1=Nc2nc(N3CCOCC3)sc2[C@@H](c2cccnc2)C1`, the “% Inhibition” value was found to be 34% and the Z score is -3.82.
Regarding `Cc1ccccc1-c1nnc2c3ccccc3nc(N3CCN(C(=O)Cc4ccc(F)cc4)CC3)n12`, the “% Inhibition” value was -8% and the Z score amounted to 0.97.
Regarding `CC(C)c1ncn(CC(=O)N2c3ccccc3C[C@@H]2C)n1`, the “% Inhibition” value is listed as -18% and the Z score is 2.54.
Taken in the same sequence, the figures for `CCNc1ccc(Cl)cc1C(=O)N[C@H](C(=O)NC)C(C)C` were -5% and 0.44.
Taken in the same sequence, the figures for `CN1CCCN(CC(=O)NC(c2ccccc2)[C@H]2C[C@@H](O)C2)CC1` (some centres not stated) were -10% and 1.25.
Take `Cc1nnc2ccc(N3CCC(n4nc(C5CC5)ccc4=O)CC3)nn12`: the “% Inhibition” value came to 0% and the Z score was 0.06.
As for `COc1ccc(Cl)cc1C(O)CNC1CCCn2ccnc21` (configuration not stated), the “% Inhibition” value came out at 2% and the Z score is given as -0.34.
Take `COc1cccc(CNC(=O)N2CC3(CCC3)[C@H]2c2ccccc2)n1`: the “% Inhibition” value was -7% and the Z score worked out at 0.99.
Regarding `CN1CCCC(CNc2nccnc2C#N)C1c1cccs1` (configuration not stated), the “% Inhibition” value is listed as -4% and the Z score worked out at 0.67.
Consider `COC1(CNC(=O)c2cnnc3ccccc23)CCC(C(F)F)CC1` (configuration not stated), for which the “% Inhibition” value was -12% and the Z score is reported as 1.39.
With `CC1=C(C)CN(S(=O)(=O)c2cnn3ccccc23)CC1`, the “% Inhibition” value is recorded as -9% and the Z score was found to be 1.06.
